{"source": "PubChem BioAssay (Tox21)", "key": {"[1]": {"assay": "qHTS assay to identify small molecule antagonists of the retinoid-related orphan receptor gamma (ROR-gamma) signaling pathway - cell viability counter screen (AID 1159520); note: nearly all actives have a fitted effect of over 50% in size", "in_short": "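Cytotoxicity was read from cellular ATP (CellTiter-Glo luminescence) after 16 hr at 37 C with 1 uM doxycycline induction. The inducer was added 2 hr after compound transfer to Tet-on ROR gamma CHO cells.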"}, "[2]": {"biological_target": "Nuclear receptor ROR-gamma (Homo sapiens) (UniProt P51449)", "assay": "qHTS assay to identify small molecule antagonists of the retinoid-related orphan receptor gamma (ROR-gamma) signaling pathway (AID 1159521; note: nearly all actives have a fitted effect of over 50% in size)", "in_short": "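Antagonist read-out: drop in luminescence (ONE-Glo) from an RORE-LUC reporter in CHO cells with doxycycline-inducible ROR-gamma; 2 hr compound pretreatment, 1 uM doxycycline, 16 hr incubation at 37 C.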"}, "[3]": {"assay": "qHTS assay to identify small molecule agonists of the AP-1 signaling pathway (AID 1159526; calls by dose curve; for activation: % is set by controls: 0 for no effect and ±100 for the full control effect)", "details": "ME-180 AP-1-bla reporter, beta-lactamase FRET ratio, 5 h; activation: at 76.8 µM (top of the series) unless noted"}, "[4]": {"biological_target": "Retinoic acid receptor RXR-alpha (Homo sapiens) (UniProt P19793)", "sequence (P19793 whole entry, looked up)": "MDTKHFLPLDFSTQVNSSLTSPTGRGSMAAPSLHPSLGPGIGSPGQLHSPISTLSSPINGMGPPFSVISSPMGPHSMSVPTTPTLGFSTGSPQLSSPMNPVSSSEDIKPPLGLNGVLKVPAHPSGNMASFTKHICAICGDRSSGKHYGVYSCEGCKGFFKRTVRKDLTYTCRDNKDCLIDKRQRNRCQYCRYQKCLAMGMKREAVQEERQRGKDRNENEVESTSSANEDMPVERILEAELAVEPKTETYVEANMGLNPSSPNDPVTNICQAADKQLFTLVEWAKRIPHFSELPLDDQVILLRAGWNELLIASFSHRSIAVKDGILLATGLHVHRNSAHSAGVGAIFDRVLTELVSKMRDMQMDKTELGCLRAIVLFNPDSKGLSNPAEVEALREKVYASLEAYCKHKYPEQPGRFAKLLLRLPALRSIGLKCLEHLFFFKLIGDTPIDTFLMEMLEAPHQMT", "assay": "qHTS assay to identify small molecule agonists of the RXR signaling pathway (AID 1159527; calls by dose curve; note: nearly all actives have a fitted effect of over 35% in size; for activation: % is set by controls: 0 for no effect and ±100 for the full control effect)", "details": "HEK293T RXRa-UAS-bla, beta-lactamase ratio, 16 h; activation: at 76.8 µM (top of the series) unless noted", "in_short": "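Agonist-mode beta-lactamase reporter assay: HEK 293T RXR-alpha-UAS-bla cells treated 16 hr at 37 C with compounds, 9-cis retinoic acid as positive control. LiveBLAzer FRET substrate, 405 nm excitation, 460/530 nm emission.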"}, "[5]": {"assay": "qHTS assay to identify small molecule agonists of the RXR signaling pathway - cell viability counter screen (AID 1159529); note: nearly all actives have a fitted effect of over 50% in size", "in_short": "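CellTiter-Glo luminescence gave viability in the wells also read for beta-lactamase. Cells (RXR-alpha-UAS-bla HEK 293T, 2% charcoal-stripped FBS medium) had 5 hr plating, then 16 hr compound exposure at 37 C; tetraoctyl ammonium bromide served as positive control.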"}, "[6]": {"assay": "qHTS assay to identify small molecule antagonists of the retinoid acid receptor (RAR) signaling pathway - cell viability counter screen (AID 1159551); note: nearly all actives have a fitted effect of over 35% in size", "in_short": "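C3RL4 RARE-luciferase line; cpds + retinol 1 uM final, 6 h, 37 C/5% CO2; CellTiter-Glo ATP luminescence, 30 min RT.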"}}, "note": "Values joined by “and” are separate entries in the source; they are usually repeats but may differ in a detail not shown here. Equal entries are not always repeated. Inconclusive results, whose numbers are uncertain, are shown with a selection of clear calls. A potency beside an inconclusive call is a rough fit, not a confirmed value. More than one record can exist for a structure, and the calls need not agree. Active and inactive are the calls of the source. Unless noted, calls come from the whole dose curve; as a rule, active = well fitted curve in the direction sought with a large enough effect in the repeat runs; inconclusive = weak or mixed curves; inactive = no such curve, though single readings can be large; an effect the other way counts as inactive or inconclusive. Potency is the fitted concentration of half-maximal effect; tags give direction and shape of the fitted curve or compound fluorescence and quenching.", "data": [{"molecule": "O=c1n(Cl)c(=O)n(Cl)c(=O)n1Cl", "values": [{"measurement": "Potency", "setting": "[1]", "result": "inactive"}, {"measurement": "Potency", "setting": "[2]", "result": "inconclusive: 11.9 µM [inhibitor, single point]"}, {"measurement": "Potency", "setting": "[3]", "result": "inactive"}]}, {"molecule": "O=C(O)c1ccccc1O", "values": [{"measurement": "Potency", "setting": "[1]", "result": "inactive"}]}, {"molecule": "CCCCOC(=O)CCC(=O)OCCCC", "values": [{"measurement": "Potency", "setting": "[1]", "result": "inactive"}]}, {"molecule": "Nc1c(Cl)cc([N+](=O)[O-])cc1Cl", "values": [{"measurement": "Potency", "setting": "[1]", "result": "inconclusive: 48.6 µM [cytotoxic, partial curve, poor fit]"}, {"measurement": "Potency", "setting": "[2]", "result": "active: 27.3 µM"}, {"measurement": "activation", "setting": "[3]", "result": "inconclusive: -14.1%"}, {"measurement": "activation", "setting": "[4]", "result": "inconclusive: -35.9%"}, {"measurement": "Potency", "setting": "[5]", "result": "inconclusive: 9.77 µM [cytotoxic, partial curve]"}]}, {"molecule": "CC(C)OC(=S)S", "values": [{"measurement": "Potency", "setting": "[1]", "result": "inconclusive: 61.1 µM [cytotoxic, partial curve, poor fit]"}, {"measurement": "Potency", "setting": "[2]", "result": "active: 15.4 µM"}, {"measurement": "Potency", "setting": "[3]", "result": "inconclusive: 4.9 µM [falling, full curve]"}, {"measurement": "Potency", "setting": "[4]", "result": "inconclusive: 19.5 µM [rising, full curve]"}, {"measurement": "Potency", "setting": "[5]", "result": "inconclusive: 15.5 µM [cytotoxic, partial curve]"}, {"measurement": "Potency", "setting": "[6]", "result": "inconclusive: 21.7 µM [cytotoxic, partial curve, poor fit]"}]}, {"molecule": "COC(=O)c1ccccc1S(=O)(=O)NC(=O)Nc1nc(C)nc(OC)n1", "values": [{"measurement": "Potency", "setting": "[1]", "result": "inactive"}]}, {"molecule": "CCCCN(CCCC)SN(C)C(=O)Oc1cccc2c1OC(C)(C)C2", "values": [{"measurement": "Potency", "setting": "[1]", "result": "active: 62.1 µM and inconclusive: 61.1 µM [cytotoxic, partial curve]"}, {"measurement": "Potency", "setting": "[2]", "result": "active: 22 µM and active: 30.6 µM"}, {"measurement": "Potency", "setting": "[3]", "result": "inconclusive: 14 µM [activator, full curve, poor fit]"}, {"measurement": "Potency", "setting": "[5]", "result": "inconclusive: 17.7 µM [cytotoxic, partial curve, poor fit] and inconclusive: 38.9 µM [cytotoxic, partial curve]"}]}]}
